# Whole data set: some 33,000 sequences, median “E-score (-0.5 to 0.5)” near -0.043, cut for the highest 2% near 0.37. The list shows a part of the results.
# Biological target: T1, Upc2 (UniProt Q12151)
# T1 sequence: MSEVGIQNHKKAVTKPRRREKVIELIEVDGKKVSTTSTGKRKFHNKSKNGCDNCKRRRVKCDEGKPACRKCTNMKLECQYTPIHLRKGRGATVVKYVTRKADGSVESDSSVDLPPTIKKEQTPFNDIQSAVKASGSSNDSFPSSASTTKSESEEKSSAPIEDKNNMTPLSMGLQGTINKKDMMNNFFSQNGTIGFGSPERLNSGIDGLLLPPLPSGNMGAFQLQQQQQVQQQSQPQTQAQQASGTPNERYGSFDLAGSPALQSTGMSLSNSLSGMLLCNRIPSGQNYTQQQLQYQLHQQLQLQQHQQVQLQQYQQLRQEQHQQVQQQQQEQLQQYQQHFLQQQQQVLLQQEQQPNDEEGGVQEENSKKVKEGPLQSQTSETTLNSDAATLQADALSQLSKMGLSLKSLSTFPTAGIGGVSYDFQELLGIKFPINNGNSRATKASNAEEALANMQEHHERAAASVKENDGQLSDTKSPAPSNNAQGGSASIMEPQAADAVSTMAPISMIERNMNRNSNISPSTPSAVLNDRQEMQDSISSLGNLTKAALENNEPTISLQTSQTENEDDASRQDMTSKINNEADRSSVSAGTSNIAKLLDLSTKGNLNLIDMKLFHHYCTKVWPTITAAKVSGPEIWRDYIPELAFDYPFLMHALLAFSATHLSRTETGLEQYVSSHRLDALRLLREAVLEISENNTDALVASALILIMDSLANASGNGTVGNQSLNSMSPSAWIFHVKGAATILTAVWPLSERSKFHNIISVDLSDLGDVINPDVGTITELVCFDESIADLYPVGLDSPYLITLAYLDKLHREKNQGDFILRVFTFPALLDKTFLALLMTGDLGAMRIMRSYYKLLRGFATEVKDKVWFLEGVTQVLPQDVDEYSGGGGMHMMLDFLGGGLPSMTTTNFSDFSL
# Experiment: PBM E-score (8-mer binding enrichment) (E-score (-0.5 to 0.5)); higher = stronger / more preferred TF binding; most listed sequences are background and not binding sites
# Details: protein concentration: 200 nM; construct: GST-full length
# Procedure, shortened: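 For each ungapped eight-base word taken together with its reverse complement, the Universal PBM Analysis Suite assigned an E-score. Binding data came from GST-tagged yeast transcription factors, applied at about 100-200 nM, on universal all-10-mer Agilent arrays made double-stranded by primer extension. Fluorescent anti-GST marked bound protein, and scans were normalised with masliner.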
row,Sequence,PBM E-score
1,CCAATGCA,-0.299
2,GTAAACGA,0.491
3,AACCGGCC,-0.0174
4,GTGACTGA,-0.173
5,GCGAGAAA,0.0818
6,TAACGTCA,0.0914
7,CTGGGGCA,-0.2
8,AGAACCCC,-0.182
9,CTGTATGC,-0.0519
10,GAAAGATC,0.00511
11,GGGGGGAA,-0.152
12,CAATGAGG,0.0308
13,AGTGCTAT,-0.0648
14,CAATAGGC,-0.0765
15,GGAAGGTA,-0.00925
16,GAGTAACC,0.101
17,GAGGGGCA,-0.0852
18,CATCAATC,-0.126
19,AGTGTGTG,0.0245
20,GAGGAACC,-0.0783
21,CGCCTTCA,-0.251
22,AACTGGAA,-0.118

row,Sequence,PBM E-score
1,CCGCTTGC,-0.0954
2,AGCTCAGA,-0.0803
3,CAGGTTCC,-0.184
4,GGTCTTAC,-0.0349
5,ACTTGGCC,-0.0135
6,AATATGGA,-0.139
7,ATACAGCC,-0.0675
8,CACCCCGC,0.0339
9,ACGCACCT,-0.0479
10,CTTGTGAC,-0.206
11,CCATACCA,-0.0836
12,ATGGACCG,-0.0313
13,CATGGTTC,-0.0162
14,ATTGAGGC,-0.127
15,GGGCAATA,-0.00082
16,ATATCAGC,-0.156
17,CGACTTTA,0.17
18,TGAATGAA,0.0389
19,AAAGACGG,-0.124
20,AACGTGTA,0.103
21,GCGGTGTA,0.0914
22,CTAGAAAG,-0.198

row,Sequence,PBM E-score
1,AGATACCT,-0.116
2,CTAAACTC,0.0155
3,TCATTACA,0.0082
4,ATTACATA,0.0413
5,AGATTACT,-0.177
6,CGGGCAGA,-0.0216
7,CACTCAAA,0.0904
8,GAACAACA,-0.135
9,AGAAGACG,-0.00555
10,CAGTGCGG,-0.121
11,CTTTCTAC,0.0545
12,AACACATG,-0.127
13,CTCAGCAA,0.0107
14,CAGGGCTA,-0.257
15,AGTCTATA,0.0445
16,AATTAAAG,-0.145
17,ACCGTGGC,-0.0829
18,ATGATGAC,-0.184
19,AATCAAAG,-0.17
20,AAGCGAAA,0.187
21,GACGGCGA,-0.045
22,ACATTCCG,0.00995

row,Sequence,PBM E-score
1,AACGAAGT,0.415
2,ACCATCTG,-0.225
3,CCTTCCTA,-0.235
4,AGAACGCG,0.138
5,CCAGGAAA,-0.203
6,CGCGCGAA,0.143
7,CGCTTCTA,0.0236
8,TGCTAGCA,-0.0249
9,GCACACTA,-0.135
10,CCGCCTTC,-0.0732
11,GCGTTTAA,0.4
12,AAGTGCGA,-0.0126
13,CCCGAAGG,0.0291
14,CCACTGTC,-0.081
15,AGTTAAAG,0.0271
16,GACTACTC,0.111
17,CCGTGCAG,-0.139
18,ATCTTGCA,0.138
19,CCGGACAC,-0.171
20,GAAGCACC,-0.184

# — the supplement of paper PMC3334620
